From paper PMC10668032
The other results are listed elsewhere or left out. At the low end of the ranking, values are background and their order means little.

Target: SIX1 homeodomain (reference allele) (UniProt Q15475)
Test: universal protein binding microarray
Conditions: Universal all-10-mer PBM (8x60K, AMADID 030236), 300 nM GST-tagged protein, Alexa Fluor 488 anti-GST; buffer, salt, pH and temperature not stated; high values mean tight binding; most listed sequences are background and not binding sites; double strand, one strand shown

| Sequence | binding signal [E-score] |
| --- | --- |
| AGGCTTTC | -0.0855 |
| GTAATTAA | -0.0167 |
| CCGGGAAA | 0.0936 |
| TAAAGCAA | -0.0823 |
| CGTCCAAG | -0.199 |
| CACGCTAG | -0.13 |
| CTATGCCA | -0.16 |
| GATACGCC | 0.452 |
| ATAACTAC | 0.0577 |
| CTAGTAGC | -0.0685 |
| GTGTCATA | 0.369 |
| GCTCCTAA | -0.117 |
| CCCCACAA | -0.0493 |
| GGGACAAC | -0.228 |
| CAAGTCGC | -0.123 |
| GGGCACGA | -0.029 |
| AAGCCCTT | -0.247 |
| AACTTGGT | -0.00434 |
| ATTCCACA | 0.0514 |
| CCCTAAAG | -0.0576 |
| CCGGAGAC | 0.184 |
| GGTTGAGA | 0.139 |

| Sequence | binding signal [E-score] |
| --- | --- |
| CAATGGCG | -0.125 |
| AAAGGGTC | -0.162 |
| GGTCGGAA | -0.000905 |
| GCCTGGAC | -0.0674 |
| CCTGTCAA | -0.205 |
| AGACAGCT | -0.231 |
| AAGAAACT | -0.294 |
| CGGTCCAG | -0.221 |
| CTACCCAA | -0.0934 |
| AAGGATGT | -0.188 |
| TACATCAA | 0.00626 |
| AGCACAGC | -0.158 |
| AATATTGT | -0.0381 |
| GATTTTGA | -0.077 |
| GCCGACGA | -0.17 |
| GGGTACCA | -0.0243 |
| ACCATGTA | 0.197 |
| CGTGTAAA | -0.000385 |
| AAGGTCAT | -0.0666 |
| ATGCGCAC | -0.0945 |
| CGATTAGC | -0.147 |
| CAGCCCTA | -0.0686 |

| Sequence | binding signal [E-score] |
| --- | --- |
| CCTTCTAG | 0.0229 |
| AAGACATT | -0.259 |
| ACGCTTGG | -0.0773 |
| AGACGGTC | 0.00261 |
| CCATTCCA | 0.0467 |
| CAGAAAAC | -0.0302 |
| ATGACCTA | -0.0868 |
| ATCTTTTA | 0.139 |
| CAGCTGCG | -0.00226 |
| CCTCATAC | 0.0101 |
| CAAATACA | 0.0588 |
| GAGGCATA | 0.0109 |
| ATTAAGTC | -0.132 |
| AGGAAGAC | -0.0379 |
| GCGGTTCC | -0.183 |
| GCTATTGA | -0.00927 |
| GGGCGTCA | -0.0819 |
| ATGTGAAT | -0.0145 |
| ATTGATAC | 0.465 |
| ACCACCAT | -0.0342 |
| GAAGCCTC | -0.191 |
| ACAGCGTG | -0.109 |

| Sequence | binding signal [E-score] |
| --- | --- |
| AGGGGGTG | 0.186 |
| AGTCTTGG | -0.261 |
| GATACTAC | 0.432 |
| ATTCACTC | -0.0706 |
| GATTTGGC | -0.221 |
| GTCGGGTA | 0.0708 |
| CTATGGTA | 0.305 |
| AGTCATGC | -0.295 |
| AGAATCAT | -0.0172 |
| ATTCGCGC | -0.125 |
| AATATCCA | 0.296 |
| CTTGGTAC | 0.00502 |
| TTAAAAAA | -0.167 |
| CCTGACCC | -0.0141 |
| ATAAACAA | -0.0516 |
| ACAGAGGT | -0.163 |
| CCGTCCCA | -0.0455 |
| AGCTCAAT | -0.129 |
| GAGGGGAC | -0.105 |
| AGCCCCTC | 0.15 |
| AATCCGGG | 0.322 |
| TCTCTGCA | -0.0957 |

| Sequence | binding signal [E-score] |
| --- | --- |
| GGGCGGAA | -0.136 |
| GACATGGA | -0.072 |
| CCGGTCCC | -0.0566 |
| TTTGCAAA | -0.217 |
| GGCAAATA | -0.0547 |
| ATAACCGA | 0.104 |
| CGTGCGAG | -0.0406 |
| GATCTCCA | 0.239 |
| ATCCATTA | 0.244 |
| CGTTCGTA | -0.0214 |
| CTAAGCGA | 0.0445 |
| CCATCGTC | 0.0364 |
| TCAAGGGA | 0.0583 |
| CGTGATCC | 0.41 |
| AATCACTG | -0.00292 |
| AACTCACG | -0.193 |
| ATAGGACG | 0.0625 |
| CTGGAATC | 0.158 |
| ACTCGTGA | -0.0261 |
| TATGTGCA | -0.00972 |
| AGCTGATG | 0.0336 |
| AGACTCCA | -0.189 |
